Assay results as given in PubChem BioAssay AID894 (National Center for Advancing Translational Sciences (NCATS), 2007).
“And” between values parts separate entries of the source, which are not always exact repeats. Equal values may be shown once. Out of some 150,000 compounds screened, about 6,500 (4.3%) were called active. Inconclusive results, whose numbers are uncertain, are shown with a selection of clear calls. The call rests on the fitted dose curve; in most records, active means well fitted inhibition curve with a large enough effect (not every such curve was filed as active); inconclusive means small, poorly fitted or top-dose-only effect, or another doubt; inactive means no such curve, though single readings can be large or run the other way. Potencies beside an inconclusive call are fits to weak or partial responses and may not hold up.

The compounds below were run against 15-hydroxyprostaglandin dehydrogenase [NAD(+)] (Homo sapiens) (UniProt P15428) (assay: qHTS Assay for Inhibitors of HPGD (15-Hydroxyprostaglandin Dehydrogenase)). Conditions: purified HPGD, NADH fluorescence kinetic, PGE2 substrate; activity change, negative = inhibition: hits give low values.
Summary of the method: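 NADH formation kinetics: reaction with 30 uM PGE2 and 1 mM NAD+ (final), 20 nM enzyme, Tris-HCl pH 8 with Tween 20, after 15 min compound preincubation at room temperature. Fluorescence change, last versus first of five reads.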
On the % scale 0 is the no-effect control and ±100 the full control effect; potency means the concentration at half of the fitted maximal effect; tags describe the fitted curve by direction and shape.

UniProt P15428, sequence (P15428 whole entry, looked up): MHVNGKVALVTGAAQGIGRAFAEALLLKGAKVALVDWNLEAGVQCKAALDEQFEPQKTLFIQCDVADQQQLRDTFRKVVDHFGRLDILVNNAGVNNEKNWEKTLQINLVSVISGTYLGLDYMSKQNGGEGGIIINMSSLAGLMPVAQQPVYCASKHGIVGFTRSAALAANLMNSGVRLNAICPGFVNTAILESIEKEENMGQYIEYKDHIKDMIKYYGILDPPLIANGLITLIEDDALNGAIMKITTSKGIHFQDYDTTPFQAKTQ

Compound	Potency	activity change, negative = inhibition
CCOC(=O)c1ccc(N2C(=O)C(O)=C(C(C)=O)C2c2ccc(O)c(OC)c2)cc1 (stereo not drawn)	inconclusive: 35.5 µM [inhibitor, single point]	–
COc1ccc(-c2nnc(SCC(=O)Nc3cc(S(=O)(=O)N4CCCCC4)ccc3Cl)n2N)cc1	–	inactive: -11.7%
CC(C)COc1ccc(C(=O)Nc2scc(-c3ccc(Cl)cc3Cl)c2C(N)=O)cc1	inconclusive: 35.5 µM [inhibitor, partial curve]	–
COc1ccc(S(=O)(=O)N2CCCCC2)cc1Br	–	inactive: -1.54%
O=C(NCC1CCCO1)c1ccc2c(=O)n(CCc3ccccc3)c(=O)[nH]c2c1 (stereo not drawn)	inconclusive: 14.1 µM [inhibitor, partial curve]	–
CCCS(=O)(=O)Nc1c(C(=O)O)[nH]c2ccccc12	inconclusive: 31.6 µM [inhibitor, partial curve]	–
CC(C)(CO)[C@@H](O)C(=O)NCCCO	–	inactive: -1.96% and inactive: -11.4%
CN1CCc2c(sc3c2C(=O)NC(c2ccccc2)N3)C1 (stereo not drawn)	inconclusive: 25.1 µM [inhibitor, single point]	–
Cc1ccc(C)c(S(=O)(=O)N2CCN(CC(=O)Nc3ccc4c(c3)CCC4)CC2)c1	–	inactive: -4.47%
Cc1ccc(S(=O)(=O)NCCN(CCNS(=O)(=O)c2ccc(C)cc2)S(C)(=O)=O)cc1	–	inactive: -4.65%
Cc1nn2c(N3CCN(C4CCCC4)CC3)cc(C(C)(C)C)nc2c1-c1ccccc1	inconclusive: 15.8 µM [inhibitor, partial curve]	–
CCC(C)(C)NC(=O)Cc1ccc(C)cc1	active: 14.1 µM	–
CC1CCN(S(=O)(=O)c2cccc(-c3cn4cc(Cl)ccc4n3)c2)CC1	inconclusive: 31.6 µM [inhibitor, single point]	–
O=C(O)c1cc2c(ccc3ccccc32)o1	inconclusive: 31.6 µM [inhibitor, partial curve]	–
CCc1c(C)sc(NC(=O)c2cc(-c3ccco3)on2)c1C#N	inconclusive: 28.2 µM [inhibitor, partial curve]	–
CCC1C(=O)N=C(SCC(=O)Nc2ccc(C(=O)OC)cc2)NC1=O (stereo not drawn)	active: 14.1 µM	–
COc1ccc(N2CCN(c3oc(-c4ccc(OC)c(OC)c4)nc3C#N)CC2)cc1	inconclusive: 35.5 µM [inhibitor, partial curve]	–
O=C(Nc1ccccc1)O/N=C/c1ccccc1Cl	active: 39.8 µM	–
CCC(C)(C)C1CCc2c(sc(NC(=O)c3ccoc3C)c2C(N)=O)C1 (stereo not drawn)	inconclusive: 15.8 µM [inhibitor, partial curve]	–
Oc1c(C=Nc2cccnc2)sc2ccccc12	–	inactive: -23.7%
FC(F)(F)c1cc(CN2CCCC3(CCNCC3)C2)cc(C(F)(F)F)c1	–	inactive: -5.54%
Cc1cc(C)n2cc(CSc3nnnn3-c3ccccc3)nc2n1	inconclusive: 31.6 µM [inhibitor, partial curve]	–
O=C(NCCc1ccc(Cl)cc1)Nc1cccc(Cl)c1	–	inactive: -7.55%

Compound	Potency	activity change, negative = inhibition
COc1ccccc1-c1cc(C(F)(F)F)nc(S(=O)(=O)CCCC(=O)N2CCOCC2)n1	active: 14.1 µM	–
O=C(CSc1ccc(-c2nc3ccccc3[nH]2)cn1)Nc1ccc(S(=O)(=O)NC2CC2)cc1	inconclusive: 25.1 µM [inhibitor, partial curve]	–
COc1ccc(-c2coc3cc4oc(=O)cc(-c5ccccc5)c4cc23)cc1F	inconclusive: 28.2 µM [inhibitor, partial curve]	–
COc1ccc(-c2cc(-c3n[nH]c(=S)n3-c3ccccc3OC)[nH]n2)cc1	active: 11.2 µM	–
COc1ccc(/C=N/NC(N)=S)cc1OC(=O)c1ccccc1	active: 25.1 µM	–
Cc1cc(C(=O)NCc2cc(C)n(C)n2)sc1-c1ccccc1	inconclusive: 25.1 µM [inhibitor, partial curve]	–
COc1ccc(C(=O)N2N=C(c3cccc(OC)c3)CC2(O)C(F)(F)F)cc1 (stereo not drawn)	–	inactive: -8.03%
CC(=O)c1ccc(N2CCN(C(=O)CCCn3c(=S)[nH]c4cc5c(cc4c3=O)OCO5)CC2)cc1	inconclusive: 14.1 µM [inhibitor, partial curve]	–
CCc1c(C)sc(NC(=O)c2ccco2)c1C(=O)N1CCOCC1	inconclusive: 11.2 µM [inhibitor, partial curve]	–
Cn1c2ccccc2c(=O)c2c(=O)n(C3CCCCC3)c(-c3ccco3)nc21	–	inactive: -3.81%
O=C(NC12CC3CC(CC(C3)C1)C2)C12CC3CC(C1)CC(n1cnc(Cl)n1)(C3)C2	–	inactive: -5.68%
COc1nc(N)nc2c1ncn2[C@@H]1C[C@H](O)[C@@H](CO)O1	–	inactive: -3.22%
CC1CCCN(C(=O)CSCC(=O)N=c2sc3ccccc3n2C)C1 (stereo not drawn)	inconclusive: 15.8 µM [inhibitor, partial curve, poor fit]	–
CCOc1ccc2oc(-c3ccccc3)c(C(=O)O)c2c1	inconclusive: 31.6 µM [inhibitor, partial curve]	–
N#Cc1ccsc1NC(=O)CN1CCCCC1	–	inactive: -11.5%
CCOC(=O)c1[nH]c2ccccc2c1NC(=O)c1ccc2c(c1)OCO2	inconclusive: 35.5 µM [inhibitor, partial curve]	–
COc1ccc(OC)c(C2=Nn3c(nnc3-c3ccco3)SC2)c1	active: 28.2 µM	–
CC(C)Cn1c(N)c(S(=O)(=O)c2cccs2)c2nc3ccccc3nc21	inconclusive: 31.6 µM [inhibitor, partial curve]	–
Cn1c(=NC(=O)CSCC(=O)N2CCCCC2)sc2ccccc21	active: 22.4 µM	–
COc1cc(-c2cc(C(=O)OCC(=O)Nc3ccc4c(c3)OCO4)c3ccccc3n2)cc(OC)c1OC	inconclusive: 11.2 µM [inhibitor, partial curve]	–
O=C(/C=C/c1ccccc1)NCCSCc1ccccc1	active: 3.16 µM	–
CCOC(=O)c1c(C)n(C)c2ccc(OC)c(NC(=O)CN3CCN(C4CCCCC4)CC3)c12	–	inactive: -9.12%
CCCCCCN(CCCCCC)C(=O)Cc1c(-c2ccc(F)cc2)[nH]c2ccccc12	inconclusive: 15.8 µM [inhibitor, full curve] and inconclusive: 25.1 µM [inhibitor, partial curve]	–

Compound	Potency	activity change, negative = inhibition
CCOc1ccc(-c2nc(CSCC(=O)NC3CCCc4ccccc43)c(C)o2)cc1 (stereo not drawn)	inconclusive: 25.1 µM [inhibitor, partial curve]	–
Clc1ccccc1-c1nn2c(Cn3cnc4ccccc43)nnc2s1	active: 14.1 µM	–
O=c1nc(/C=C/c2cc([N+](=O)[O-])ccc2Cl)cc(C(F)(F)F)[nH]1	active: 3.16 µM	–
COc1cc(C(=O)N2CCCN(c3nc4cc(C)ccc4cc3C#N)CC2)cc(OC)c1OC	inconclusive: 31.6 µM [inhibitor, partial curve]	–
O=[N+]([O-])c1ccc(/C=C/c2ccc3cccc([N+](=O)[O-])c3n2)cc1	inconclusive: 28.2 µM [inhibitor, partial curve]	–
CCN1C(=O)CC(N2CCC(C(=O)N3CCOCC3)CC2)C1=O (stereo not drawn)	–	inactive: -11.8%
CCOCCCNC(=O)c1ccc(OC)cc1	inconclusive: 25.1 µM [inhibitor, partial curve, poor fit]	–
COC(=O)c1c(NC(=O)c2ccc(C)cc2)sc(Cc2ccccc2)c1C	inconclusive: 25.1 µM [inhibitor, partial curve]	–
O=C(NCCN1CCOCC1)c1c[nH]c2ccc(S(=O)(=O)N3CCOCC3)cc2c1=O	inconclusive: 28.2 µM [inhibitor, single point]	–
Cc1cc(C)cc(N=Cc2[nH]c3ccc(Br)c(Cl)c3c2O)c1	inconclusive: 35.5 µM [inhibitor, single point]	–
O=C(c1nc2nc(-c3ccccc3)cc(C(F)(F)F)n2n1)N1CCCCC1	inconclusive: 15.8 µM [inhibitor, partial curve]	–
CC(C)=CCCC(C)NC(=O)NC1CCCCC1 (stereo not drawn)	active: 35.5 µM	–
N#Cc1c(-c2cccc(Br)c2)cc(-c2cccnc2)nc1N	inconclusive: 0.562 µM [inhibitor, full curve]	–
CC(=O)N1CCN(c2ccc(NC(=O)c3ccccc3Br)cc2Cl)CC1	active: 15.8 µM	–
COc1ccc(S(=O)(=O)Nc2nc3ccccc3nc2NCc2ccc3c(c2)OCO3)cc1	inconclusive: 31.6 µM [inhibitor, partial curve]	–
C=CCNC(=S)NNC(=O)C(CCCC)CC(C)(C)O (stereo not drawn)	inconclusive: 39.8 µM [inhibitor, partial curve]	–
COC(=O)c1ccc(COc2ccc(/C=C(\C#N)c3nc4ccccc4[nH]3)cc2OC)o1	inconclusive: 28.2 µM [inhibitor, single point]	–
COC(=O)c1ccccc1NC(=O)C(C)NS(=O)(=O)c1ccc(OC)cc1 (stereo not drawn)	inconclusive: 28.2 µM [inhibitor, single point]	–
COc1ccc(C2c3c(ccc4ccccc34)Oc3ncn4nc(-c5ccco5)nc4c32)cc1 (stereo not drawn)	inconclusive: 31.6 µM [inhibitor, single point]	–
COc1cc(C2Nc3ccccc3C(=O)N2c2ccc(Cl)cc2)c(Cl)cc1OCC(=O)O (stereo not drawn)	inconclusive: 25.1 µM [inhibitor, partial curve]	–
CCC(NC(=O)NCCCn1ccnc1)(C(F)(F)F)C(F)(F)F	–	inactive: -5.88%
C/C=C(/C)C(=O)O[C@H]1[C@@H](O)c2c(ccc3ccc(=O)oc23)OC1(C)C	inconclusive: 15.8 µM [inhibitor, partial curve]	–
